Measured values reported in the supplement of paper PMC8728848.
The other results are listed elsewhere or left out.

How the values were obtained:
Experiment in all cases: glycan array binding signal (z-score within array); higher = stronger binding
Conditions in all cases: glycan notation: IUPAC condensed, linker removed; mutation: E227G
[1] = target: Neu5Ac(a2-3)Gal(b1-4)GlcNAc(b1-3)[Neu5Ac(a2-3)Gal(b1-4)GlcNAc(b1-6)]GalNAc
Procedure, shortened: (§1)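 From the Consortium for Functional Glycomics database, 3228 arrays were curated, keeping only those whose protein sequence was available. Binding is given as a within-array Z-score averaged across arrays sharing a protein sequence and across linkers. Negative Z-scores can be read as non-binding.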

[2] = target: Neu5Ac(a2-3)Gal(b1-4)GlcNAc(b1-6)GalNAc
Procedure, shortened: as §1

[3] = target: Neu5Ac(a2-3)Gal(b1-4)GlcNAc(b1-6)[Gal(b1-3)]GalNAc
Procedure, shortened: as §1

[4] = target: Neu5Ac(a2-3)Gal(b1-4)GlcNAc(b1-6)[Neu5Ac(a2-3)Gal(b1-3)]GalNAc
Procedure, shortened: as §1

[5] = target: Neu5Ac(a2-3)Gal(b1-4)GlcNAc6S
Procedure, shortened: as §1

[6] = target: Neu5Ac(a2-3)Gal(b1-4)[Fuc(a1-3)]GlcNAc
Procedure, shortened: as §1

[7] = target: Neu5Ac(a2-3)Gal(b1-4)[Fuc(a1-3)]GlcNAc(b1-2)Man
Procedure, shortened: as §1

[8] = target: Neu5Ac(a2-3)Gal(b1-4)[Fuc(a1-3)]GlcNAc(b1-3)Gal
Procedure, shortened: as §1

[9] = target: Neu5Ac(a2-3)Gal(b1-4)[Fuc(a1-3)]GlcNAc(b1-3)Gal(b1-4)GlcNAc
Procedure, shortened: as §1

[10] = target: Neu5Ac(a2-3)Gal(b1-4)[Fuc(a1-3)]GlcNAc(b1-3)Gal(b1-4)[Fuc(a1-3)]GlcNAc(b1-3)Gal(b1-4)[Fuc(a1-3)]GlcNAc
Procedure, shortened: as §1

[11] = target: Neu5Ac(a2-3)Gal(b1-4)[Fuc(a1-3)]GlcNAc(b1-3)GalNAc
Procedure, shortened: as §1

[12] = target: Neu5Ac(a2-3)Gal(b1-4)[Fuc(a1-3)]GlcNAc(b1-6)[Gal(b1-3)]GalNAc
Procedure, shortened: as §1

[13] = target: Neu5Ac(a2-3)Gal(b1-4)[Fuc(a1-3)]GlcNAc(b1-6)[Neu5Ac(a2-3)Gal(b1-3)]GalNAc
Procedure, shortened: as §1

[14] = target: Neu5Ac(a2-3)Gal(b1-4)[Fuc(a1-3)]GlcNAc6S
Procedure, shortened: as §1

[15] = target: Neu5Ac(a2-3)Gal6S(b1-4)GlcNAc
Procedure, shortened: as §1

[16] = target: Neu5Ac(a2-3)Gal6S(b1-4)[Fuc(a1-3)]GlcNAc
Procedure, shortened: as §1

[17] = target: Neu5Ac(a2-3)GalNAc
Procedure, shortened: as §1

[18] = target: Neu5Ac(a2-3)GalNAc(b1-4)GlcNAc
Procedure, shortened: as §1

[19] = target: Neu5Ac(a2-3)[GalNAc(b1-4)]Gal(b1-4)Glc
Procedure, shortened: as §1

[20] = target: Neu5Ac(a2-3)[GalNAc(b1-4)]Gal(b1-4)GlcNAc
Procedure, shortened: as §1

[21] = target: Neu5Ac(a2-3)[GalNAc(b1-4)]Gal(b1-4)GlcNAc(b1-3)GalNAc
Procedure, shortened: as §1

[22] = target: Neu5Ac(a2-3)[Neu5Ac(a2-6)]GalNAc
Procedure, shortened: as §1

[23] = target: Neu5Ac(a2-6)Gal
Procedure, shortened: as §1

[24] = target: Neu5Ac(a2-6)Gal(b1-3)GlcNAc(b1-3)[Gal(b1-4)GlcNAc(b1-6)]Gal(b1-4)Glc
Procedure, shortened: as §1

[25] = target: Neu5Ac(a2-6)Gal(b1-4)Glc
Procedure, shortened: as §1

[26] = target: Neu5Ac(a2-6)Gal(b1-4)GlcNAc
Procedure, shortened: as §1

[27] = target: Neu5Ac(a2-6)Gal(b1-4)GlcNAc(b1-2)Man
Procedure, shortened: as §1

[28] = target: Neu5Ac(a2-6)Gal(b1-4)GlcNAc(b1-2)Man(a1-3)Man(b1-4)GlcNAc(b1-4)GlcNAc
Procedure, shortened: as §1

[29] = target: Neu5Ac(a2-6)Gal(b1-4)GlcNAc(b1-2)Man(a1-3)[Gal(b1-4)GlcNAc(b1-2)Man(a1-6)]Man(b1-4)GlcNAc(b1-4)GlcNAc
Procedure, shortened: as §1

[30] = target: Neu5Ac(a2-6)Gal(b1-4)GlcNAc(b1-2)Man(a1-3)[GlcNAc(b1-2)Man(a1-6)]Man(b1-4)GlcNAc(b1-4)GlcNAc
Procedure, shortened: as §1

B1: Epa1-NP-mutant-E227G (Candida glabrata), Q6VBJ0 (protein)
chain: MILNPALFLNKCVCIYTTLILLLLTNGGYATSSNDISLASKDPTTFPLGCSPDITTPKKGLSMELYSYDFRKKGSYPCWDAAYLDPNYPRTGYKSHRLLAKVDGVTGNINFYYHATKGCTPQLGHLPASYNYPKPLTMTNFTMLLYGYFRPKVTGFHTFTISADDLLFVNFGAGNAFDCCRRDSSADHFGNYQAYAIWGSKTAKDELTVHLDAGVYYPIRLFYNNRGYDGALSFTFKTESNENTVSDFSEYFFSLDDTEEGCPGLISYDSSCASVKTSKIIGIDYHTETPNENLVPITKTIYHLGIPCTGTTTTPLCGSGFYDPLANKCVTINTSSTSSVTKTTSHTTSKEVSFHSSISSQKTLIPKSIPSPYGPIKSQSIPTEMETSSEISSSEYAFSDVISTPSHSPYTKKHSSLNSSSYTSTVIHSLTSYSISQGIFSTSLSEQNITSKSSTDKFSTATSMSNNITQSSIIISQFSTNNENYTTTSMHTSSDKISTETLNNSISTTTSILFSNSSTILKNNTTIISSDKDTHYHPVNPTIVCSTNKTEIICASITQPSISNSNNHWSSSVLKFNSTTVRSTLPSSAGSNETSINVPFSSSTESNTSTSSTSTSNSKMVRSTLPSSAGSNETSISVPFSSSTESNTSTSSTSTSNSKMVRSTLPSSAGSNETSINVPFSSSTESNTSTSSTSTSNSKTVRSTPFSSAGIIMTSLSQRNNKSASSYASSNSKCYNTADSCRKVHSTPSYLLTSSYTSEGVDYDCSLVSTKLKINDTNCVNNKHTTKSCLKTSVTTTIPTLEIKTARKSSSNTIGLHSYPTSSPNKSISSAPIIGYISSFKTIKTASPSYQTSDLTTITTITSLNNPGSTAVENTHESNDKSRKTSSNDISSKHSVIKETKDAVESSNKSHQTNTLKCSSIIIASSSHNSYESLGGTTLTLTLSKVYSPQNNDTLPFLEISEVNPSRTVLPESSKMMQYLTSTEERNKTARNTIATNIVSISTFHFEGEGNAIRMGYTQLLLMLIGIIVMNIGT
In the case of B1, the “glycan array binding signal (z-score)” value [1] is reported as -0.174, the “glycan array binding signal (z-score)” value [2] is reported as -0.157 and the “glycan array binding signal (z-score)” value [3] is reported as 0.176. For the same binder, the “glycan array binding signal (z-score)” value [4] was -0.111, the “glycan array binding signal (z-score)” value [5] was -0.241 and the “glycan array binding signal (z-score)” value [6] was -0.186. For the same binder, the “glycan array binding signal (z-score)” value [7] was -0.326, the “glycan array binding signal (z-score)” value [8] was -0.145 and the “glycan array binding signal (z-score)” value [9] was -0.14. The “glycan array binding signal (z-score)” value [10] was -0.192, the “glycan array binding signal (z-score)” value [11] was 0.126 and the “glycan array binding signal (z-score)” value [12] was -0.043. For the same binder, the “glycan array binding signal (z-score)” value [13] was 0.017, the “glycan array binding signal (z-score)” value [14] was -0.268 and the “glycan array binding signal (z-score)” value [15] was -0.281. For the same binder, the “glycan array binding signal (z-score)” value [16] was -0.356, the “glycan array binding signal (z-score)” value [17] was -0.158 and the “glycan array binding signal (z-score)” value [18] was -0.186. For the same binder, the “glycan array binding signal (z-score)” value [19] was -0.169, the “glycan array binding signal (z-score)” value [20] was -0.209 and the “glycan array binding signal (z-score)” value [21] was 0.168. For the same binder, the “glycan array binding signal (z-score)” value [22] was -0.219, the “glycan array binding signal (z-score)” value [23] was -0.119 and the “glycan array binding signal (z-score)” value [24] was -0.144. For the same binder, the “glycan array binding signal (z-score)” value [25] was -0.243, the “glycan array binding signal (z-score)” value [26] was -0.247 and the “glycan array binding signal (z-score)” value [27] was -0.243. For the same binder, the “glycan array binding signal (z-score)” value [28] was -0.065, the “glycan array binding signal (z-score)” value [29] was -0.187 and the “glycan array binding signal (z-score)” value [30] was -0.204.
